The supplement of paper PMC10441789
Some of the results follow. Antibody binding of pooled human sera (four to six donors per pool; dilution not stated) to peptides of the Trypanosoma cruzi antigen TSSA on microarrays. Quantile-normalised fluorescence in arbitrary units, mean of duplicate arrays; higher = more binding. No active / inactive call. The uninfected pools are read here as the healthy donors of the same country. The strongest signals lie near the top of the scale (about 60,000).

What was measured:
Assay in all cases: antibody binding signal (normalised fluorescence) (arbitrary fluorescence units); higher = stronger serum antibody binding to peptide
[1] = test system: pooled sera of chronic Chagas disease patients, Argentina
Description: (§1)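 Microarray of 15-residue peptides over residues 30-55 of Trypanosoma cruzi TSSAII, each with 1 to 10 substitutions at naturally variable positions, probed with one serum pool per country.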

[2] = test system: pooled sera of chronic Chagas disease patients, Bolivia
Description: as §1

[3] = test system: pooled sera of chronic Chagas disease patients, Brazil
Description: as §1

[4] = test system: pooled sera of chronic Chagas disease patients, Colombia
Description: as §1

[5] = test system: pooled sera of chronic Chagas disease patients, Mexico
Description: as §1

[6] = test system: pooled sera of chronic Chagas disease patients, USA
Description: as §1

[7] = test system: pooled sera of uninfected people, Argentina
Description: as §1

[8] = test system: pooled sera of uninfected people, Bolivia
Description: as §1

[9] = test system: pooled sera of uninfected people, Brazil
Description: as §1

[10] = test system: pooled sera of uninfected people, Colombia
Description: as §1

[11] = test system: pooled sera of uninfected people, Mexico
Description: as §1

[12] = test system: pooled sera of uninfected people, USA
Description: as §1

Sequence | antibody binding signal [1] | antibody binding signal [2] | antibody binding signal [3] | antibody binding signal [4] | antibody binding signal [5] | antibody binding signal [6] | antibody binding signal [7] | antibody binding signal [8] | antibody binding signal [9] | antibody binding signal [10] | antibody binding signal [11] | antibody binding signal [12]
TEKKPAAGEAPSQSG | 1410 | 12200 | 16600 | 381 | 435 | 16100 | 92.6 | 164 | 297 | 94.6 | 242 | 679
TPPSGTEKKAATGEA | 32200 | 16600 | 27700 | 244 | 9730 | 3070 | 745 | 256 | 554 | 465 | 229 | 135
KKTATGEAPSPPGAS | 2370 | 5040 | 6310 | 200 | 157 | 12700 | 314 | 265 | 95.5 | 140 | 88.8 | 431
TENKTATGETPSPPG | 19100 | 1470 | 3760 | 156 | 149 | 6230 | 132 | 235 | 208 | 129 | 157 | 1450
PSGKDNKAAAGETPS | 2400 | 654 | 5360 | 7030 | 5110 | 5150 | 324 | 422 | 191 | 209 | 122 | 130
TPPSGTENKAATGGA | 49700 | 43400 | 48800 | 405 | 5030 | 19400 | 2970 | 608 | 449 | 733 | 318 | 591
SSTPPSGTDNKTAAG | 47700 | 44700 | 50000 | 1960 | 28900 | 22800 | 1250 | 730 | 1660 | 187 | 293 | 265
TENKPAAGGTPSPSG | 44500 | 849 | 1670 | 1180 | 741 | 282 | 200 | 784 | 887 | 420 | 217 | 219
GKENKPATGEAPSPS | 50300 | 40100 | 49700 | 6570 | 7920 | 44500 | 1520 | 932 | 299 | 251 | 444 | 149
PPSGTDKKPAAGETP | 18700 | 25000 | 42700 | 5630 | 42500 | 3650 | 585 | 498 | 514 | 827 | 4720 | 338
EKKPAAGGAPSPPGA | 650 | 251 | 574 | 5240 | 436 | 1220 | 292 | 752 | 357 | 137 | 145 | 862
NKPAAGETPSPSGAS | 309 | 758 | 17100 | 294 | 455 | 2210 | 365 | 745 | 657 | 290 | 201 | 1330
SGKEKKPATGGTPSP | 5820 | 444 | 5160 | 2770 | 4600 | 5190 | 225 | 188 | 328 | 197 | 81 | 206
GTENKTATGGTPSPP | 32900 | 1520 | 812 | 1020 | 1140 | 1280 | 310 | 390 | 240 | 672 | 381 | 155
KDNKAAAGGAPSQSG | 245 | 190 | 199 | 736 | 174 | 182 | 325 | 1110 | 111 | 147 | 88.4 | 105
TPPSGTDNKTATGGT | 37600 | 39400 | 47800 | 717 | 14300 | 11800 | 730 | 617 | 2320 | 316 | 238 | 229
TPPSGKDKKTATGET | 1710 | 635 | 2490 | 1140 | 23200 | 738 | 184 | 391 | 126 | 272 | 95.4 | 132
DKKPATGETPSPPGA | 28700 | 22300 | 29800 | 121 | 170 | 22200 | 158 | 446 | 256 | 210 | 1510 | 415
GTENKAATGETPSQS | 34200 | 10200 | 23800 | 1300 | 1450 | 13200 | 159 | 433 | 179 | 149 | 177 | 88
PPSGKENKAATGETP | 17100 | 10200 | 7400 | 870 | 2180 | 12200 | 3190 | 1980 | 346 | 1250 | 237 | 325
STPPSGTDNKPATGG | 50800 | 46300 | 50300 | 8600 | 30600 | 43300 | 1590 | 1340 | 872 | 430 | 1350 | 655
PSGTENKAATGGTPS | 49000 | 24900 | 42200 | 3260 | 3370 | 11000 | 1170 | 630 | 514 | 480 | 528 | 284
GKENKPATGETPSQP | 37800 | 20000 | 37900 | 12700 | 13200 | 29700 | 1030 | 676 | 355 | 139 | 1780 | 179
STPPSGKDKKAATGG | 9640 | 1020 | 1400 | 2960 | 33800 | 1250 | 188 | 419 | 108 | 223 | 105 | 126
KEKKAAAGEAPSQSG | 254 | 1120 | 996 | 226 | 163 | 7700 | 100 | 108 | 96.4 | 91.1 | 92.7 | 102

Sequence | antibody binding signal [1] | antibody binding signal [2] | antibody binding signal [3] | antibody binding signal [4] | antibody binding signal [5] | antibody binding signal [6] | antibody binding signal [7] | antibody binding signal [8] | antibody binding signal [9] | antibody binding signal [10] | antibody binding signal [11] | antibody binding signal [12]
SGTEKKAAAGEAPSQ | 1220 | 11400 | 9090 | 828 | 1200 | 11600 | 101 | 556 | 420 | 110 | 119 | 104
EKKPAAGGTPSQPGA | 674 | 263 | 828 | 5740 | 357 | 1240 | 317 | 838 | 3190 | 236 | 360 | 949
PPSGTEKKTAAGGAP | 27100 | 1450 | 13100 | 7140 | 2620 | 2890 | 1000 | 412 | 173 | 240 | 187 | 350
DNKTAAGGTPSQSGA | 1800 | 334 | 593 | 5630 | 483 | 1470 | 396 | 426 | 1740 | 246 | 2490 | 217
GKENKTATGEAPSPS | 17700 | 18800 | 22300 | 10700 | 10600 | 26200 | 492 | 202 | 165 | 192 | 259 | 138
GTDNKPATGEAPSPS | 46900 | 52500 | 52600 | 1240 | 268 | 39700 | 896 | 714 | 727 | 172 | 371 | 168
DKKAAAGGAPSQSGA | 1000 | 277 | 636 | 3650 | 376 | 486 | 187 | 130 | 325 | 134 | 148 | 172
TPPSGTDNKPATGGT | 28200 | 43900 | 49600 | 3790 | 13900 | 21900 | 1280 | 874 | 1360 | 416 | 1560 | 836
TDKKPAAGGTPSPPG | 468 | 210 | 334 | 5600 | 280 | 842 | 130 | 731 | 2470 | 259 | 113 | 192
PSGKDKKTATGGTPS | 2420 | 595 | 1990 | 4620 | 3850 | 4220 | 190 | 267 | 98.2 | 102 | 84.3 | 93.7
EKKTATGGAPSPPGA | 1700 | 358 | 3040 | 3490 | 1110 | 1510 | 377 | 809 | 116 | 175 | 244 | 637
DKKAAAGGAPSPPGA | 367 | 250 | 283 | 5200 | 617 | 908 | 225 | 136 | 173 | 131 | 121 | 160
KDKKTAAGGAPSPSG | 191 | 239 | 238 | 2580 | 320 | 219 | 124 | 112 | 120 | 137 | 101 | 138
GKENKAAAGETPSQP | 7040 | 1230 | 33300 | 15100 | 9860 | 21600 | 542 | 191 | 126 | 154 | 129 | 117
GTDKKAAAGGAPSPP | 262 | 202 | 255 | 5840 | 722 | 952 | 176 | 236 | 150 | 142 | 127 | 125
TSSTPPSGKDKKTAT | 21500 | 653 | 1440 | 210 | 41100 | 770 | 152 | 255 | 117 | 107 | 92.7 | 93.4
DNKPATGGAPSPPGA | 604 | 16400 | 4920 | 334 | 281 | 2020 | 334 | 864 | 477 | 207 | 249 | 186
TDKKAAAGETPSPPG | 780 | 298 | 2300 | 310 | 288 | 2300 | 167 | 193 | 145 | 149 | 243 | 1180
PSGKENKAAAGGTPS | 8530 | 4010 | 11100 | 14800 | 11500 | 9990 | 4980 | 2710 | 236 | 538 | 346 | 173
SGKDKKPATGGTPSP | 942 | 255 | 566 | 819 | 727 | 1060 | 168 | 92.8 | 226 | 355 | 108 | 108
GKEKKTAAGGTPSPS | 1580 | 232 | 216 | 4490 | 746 | 1850 | 128 | 82.7 | 334 | 162 | 118 | 114
KKAAAGGTPSPSGAS | 227 | 193 | 206 | 2130 | 214 | 1420 | 154 | 94.1 | 698 | 121 | 83.8 | 198
PPSGKENKPATGGTP | 8390 | 3960 | 5160 | 954 | 2770 | 11700 | 4530 | 2760 | 255 | 592 | 262 | 616
GTDKKTATGGTPSQP | 504 | 582 | 816 | 4940 | 526 | 1120 | 476 | 186 | 227 | 646 | 892 | 110
KDKKPAAGEAPSPSG | 255 | 372 | 2260 | 523 | 538 | 11400 | 97.9 | 105 | 129 | 97.8 | 90.5 | 98.6
